Among all 310,000 compounds or so, about 14,000 (4.5%) showed an effect of 50% or more. The effect is printed as a negative number. This is one part of the list.
Biological target: human ether-à-go-go-related gene (hERG) potassium channel (human, UniProt Q12809)
Assay: primary screen, population patch clamp on CHO cells stably expressing hERG
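Further: peak tail current of the secondary pulse compared with the same well before compound.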

Chain of human ether-à-go-go-related gene (hERG) potassium channel (Q12809 whole entry, looked up): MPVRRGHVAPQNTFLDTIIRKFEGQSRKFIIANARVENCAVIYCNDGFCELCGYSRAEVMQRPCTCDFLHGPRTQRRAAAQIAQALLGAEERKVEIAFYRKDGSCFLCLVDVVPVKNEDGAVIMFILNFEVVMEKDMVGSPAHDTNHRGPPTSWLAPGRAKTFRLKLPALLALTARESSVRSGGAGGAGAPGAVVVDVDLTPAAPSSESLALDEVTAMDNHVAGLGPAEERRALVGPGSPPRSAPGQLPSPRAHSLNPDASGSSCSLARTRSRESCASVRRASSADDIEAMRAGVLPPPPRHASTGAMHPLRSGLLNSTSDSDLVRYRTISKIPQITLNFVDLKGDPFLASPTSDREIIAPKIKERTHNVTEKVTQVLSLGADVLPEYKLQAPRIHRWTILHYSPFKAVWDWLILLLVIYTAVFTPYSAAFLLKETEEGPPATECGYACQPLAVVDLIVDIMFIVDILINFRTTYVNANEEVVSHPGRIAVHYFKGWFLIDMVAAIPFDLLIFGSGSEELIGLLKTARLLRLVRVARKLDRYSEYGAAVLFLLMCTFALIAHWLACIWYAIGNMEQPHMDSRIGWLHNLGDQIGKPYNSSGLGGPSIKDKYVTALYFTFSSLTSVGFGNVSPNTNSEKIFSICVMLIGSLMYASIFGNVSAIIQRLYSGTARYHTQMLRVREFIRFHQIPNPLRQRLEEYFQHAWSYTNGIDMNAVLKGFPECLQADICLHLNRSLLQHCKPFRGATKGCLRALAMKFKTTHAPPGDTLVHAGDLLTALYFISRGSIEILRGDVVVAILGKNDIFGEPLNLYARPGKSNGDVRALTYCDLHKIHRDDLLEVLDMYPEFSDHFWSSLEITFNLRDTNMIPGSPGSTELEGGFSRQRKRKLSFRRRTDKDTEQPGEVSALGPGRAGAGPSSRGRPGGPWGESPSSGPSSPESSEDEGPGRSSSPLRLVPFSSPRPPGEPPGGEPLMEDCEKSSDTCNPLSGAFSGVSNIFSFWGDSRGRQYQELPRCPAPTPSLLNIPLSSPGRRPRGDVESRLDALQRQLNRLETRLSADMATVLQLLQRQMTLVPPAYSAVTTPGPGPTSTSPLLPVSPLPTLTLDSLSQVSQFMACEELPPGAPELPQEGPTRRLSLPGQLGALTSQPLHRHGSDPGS

SMILES | hERG current change (%, negative = inhibition) at 10uM [%]
COC(=O)C1=C(N)N(c2ccccc2C(F)(F)F)C2=C(C(=O)CCC2)C1c1ccc2c(c1)OCO2 (stereo not drawn) | 20.5
COc1cc2c(cc1OC)C(COc1ccccc1OC)N(C(C)=O)CC2 (stereo not drawn) | 14.8
CCOC(=O)N1CCC(C(N)=O)CC1 | 9.11
O=C(N/N=C/C=C/c1ccco1)c1cnccn1 | -1.16
CCCCNCc1cc(OC)c(OCC(N)=O)cc1Br | -1.04
CN(C)c1ccc(C(CNC(=O)Cc2cccc3ccccc23)N(C)C)cc1 (stereo not drawn) | -32.8
CN(CC(=O)NCc1ccccc1)S(=O)(=O)c1ccc2c(c1)CCC(=O)N2 | -14.7
O=C(Nc1ccc(Br)cc1)c1cccc2c1C(=O)N(C1CCCCC1)C2 | 16.4
O=c1c2ccc([N+](=O)[O-])cc2ncn1Cc1ccccc1C(F)(F)F | -31.8
CC(=NCCCn1ccnc1)c1c(-c2ccccc2)[nH]n(-c2nc3ccccc3s2)c1=O | -70.8
CC(=O)NC(c1ccc(C)cc1)c1cc(Cl)c2cccnc2c1O (stereo not drawn) | 4.05
CC(=O)NC(C)c1cc(Cl)c2cccnc2c1O (stereo not drawn) | 15.3
CCn1c(COc2ccc(Cl)cc2)nnc1SC1CCc2ccccc2C1=O (stereo not drawn) | -15.5
COc1ccc2nc(C)cc(N3CCOCC3)c2c1 | -14.6
COc1ccc(N(C)C(=O)c2cc3c(Cl)nc4ccccc4c3s2)cc1 | -4.49
Cc1noc(C)c1S(=O)(=O)Nc1ccc(C(C)C)cc1 | -17.6
COc1ccc(S(=O)(=O)N2CCC(c3cc(-c4cccc5ccccc45)n[nH]3)CC2)cc1 | 19
O=S(=O)(NCC1NCCc2ccccc21)c1ccccc1 (stereo not drawn) | -42.5
Cc1nc(SCC(=O)NCc2ccco2)[nH]c(=O)c1C | 18.1
COc1ccc(CCNC(=O)c2cccc(C(=O)NCCc3ccc(OC)cc3)n2)cc1 | -36.9
CCC(=O)Nc1cccc(C2=NOC3(C2)C[C@@H](C(N)=O)N(C(=O)c2ccccc2C(=O)c2ccccc2)C3)c1 (stereo partly drawn) | 0.194
O=C(C1CCN(c2ncnc3c2nc2n3CCCCC2)CC1)N1CCN(c2ccc(F)cc2)CC1 | -51.5
Nc1cccc(-c2cnc3ccccc3n2)c1 | 14.7

SMILES | hERG current change (%, negative = inhibition) at 10uM [%]
O=S(=O)(Cc1ccccc1)NCC1CCCN(Cc2cccc3nonc23)C1 (stereo not drawn) | -12.2
COc1ccc(COC(=O)C2CCN(S(=O)(=O)c3ccc(F)cc3)CC2)cc1 | -13.9
COc1ccc(/C=C2\CCC(C3CCCC3)C2=O)c(OC)c1 (stereo not drawn) | 13.1
COc1ccc(C(=O)Nc2cc3c(cc2N2CCCCC2)n(C)c(=O)n3C)cc1OC | 13.1
COC(=O)c1ccccc1NC(=S)NC(=O)c1ccc2ccccc2c1 | 33.2
CC1=C(C)CC(C(=O)Nc2nc(C)cs2)C(C(=O)O)C1 (stereo not drawn) | 14.2
O=C(C1CC(c2ccc(Cl)c(Cl)c2)=NO1)N1CCC2(CC1)OCCO2 (stereo not drawn) | -19.8
COc1ccccc1-c1nnc(SCC(=O)c2c(N)n(C3CC3)c(=O)[nH]c2=O)o1 | -7.39
CCC(Oc1ccccc1OC)C(=O)Nc1ccc2c(c1)n(C)c(=O)n2C (stereo not drawn) | -2.13
CCc1ccc(OCC(O)CN2CCN(c3ccccn3)CC2)cc1.Cl (stereo not drawn) | -67.4
CC(C)c1ccc(NCCC(=O)c2cccs2)cc1 | 2.35
CCOC(=O)CSc1nc(C)c2cc(OC)ccc2n1 | 1.7
CCCCOC(=O)CCc1c(C)n[nH]c1C | 3.8
Cc1csc(SCC(=O)N(C)c2c(N)n(Cc3ccccc3)c(=O)[nH]c2=O)n1 | 15.4
O=C(COC(=O)CCc1nc2ccccc2s1)Nc1cccc(S(=O)(=O)N2CCOCC2)c1 | -42.3
Cc1csc(NC(=O)c2ccc(C)s2)n1 | 6.99
O=C(NCc1ccccc1Cl)/C(=C\c1cccnc1)NC(=O)c1ccccc1 | -48.7
CCCCNC(=O)c1onc(CSc2ccc(Cl)cc2)c1C(=O)O | -4.94
O=C(NCc1ccco1)/C(=C\c1ccco1)NC(=O)c1cccs1 | -14.8
N#CCC(N)=C(C#N)C#N | -1.83
CCN1CCN(Cc2c(O)ccc3c(=O)c(-c4ccc(OC)c(OC)c4)c(C(F)(F)F)oc23)CC1 | -2.47
CCOC(=O)Cc1csc(NC(=O)c2ccoc2C)n1 | -2.79
N#Cc1ccc(OCC(=O)N2CCN(C(=O)c3ccco3)CC2)cc1 | -71

SMILES | hERG current change (%, negative = inhibition) at 10uM [%]
Cl.c1ccc(C2CN3CCSC3=N2)cc1 (stereo not drawn) | 12
CCOc1ccc(N2C(=O)CC(NCCNc3ccc([N+](=O)[O-])cn3)C2=O)cc1 (stereo not drawn) | -77.5
S=C(Nc1ccccc1)c1ccccn1 | 6.46
O=c1[nH]c(C2CCN(S(=O)(=O)c3ccccc3)CC2)nc2c1nnn2Cc1cccc(Cl)c1 | -2.4
COc1ccc(CNC(=S)Nc2cccc(Cl)c2)cc1 | 10.4
CCOc1ccc(OCCC(=O)Nc2ccc(F)cc2C)cc1 | 21.2
CC(=O)c1cccc(NC(=O)c2ccc(S(=O)(=O)N3CCCCC3)cc2)c1 | 1.77
O=C(c1ccoc1)N1CCCC(N2CCN(c3ccc(F)cc3)CC2)C1 (stereo not drawn) | -48.1
COc1ccc(C(=O)O)cc1S(=O)(=O)NCc1ccccn1 | 12.5
CCn1c2ccccc2c2cc(N=C3SC(CC(=O)Nc4ccccc4)C(=O)N3C)ccc21 (stereo not drawn) | 15.8
CCN(Cc1cnn(C)c1)C(=O)c1ccc(OC2CCN(S(=O)(=O)N(C)C)CC2)cc1 | 19.1
Cc1ccc(C)n1CCN1CCN(CC(=O)Nc2ccc(S(N)(=O)=O)cc2)CC1 | -12.2
Cc1ccc(OCC(=O)c2c[nH]c3ccccc23)c([N+](=O)[O-])n1 | 24.4
COc1ccc(OC)c(CNc2ccc3c(c2)nc(C)n3C)c1 | -68.4
O=C(CSC1=NCCS1)Nc1cccc(F)c1 | -7.23
CC(C)C[C@H](NC(=O)OC(C)(C)C)c1n[nH]c(=S)n1N | 16.4
O=C(NN=C1CCCC1)c1cccc(O)c1 | 8.96
Cc1nc(N(C)C)c2sc(=S)n(-c3ccccc3)c2n1 | 20.6
CCN(c1ccc(C(O)(C(=O)OC)C(F)(F)F)cc1)S(=O)(=O)c1ccc(C)cc1 (stereo not drawn) | -35.1
COc1ccc(Cl)cc1NC(=O)COC(=O)CNC(=O)c1ccc([N+](=O)[O-])c(C)c1 | 14.9
C=CCn1c(SC(C)CC)nc(O)cc1=O (stereo not drawn) | 20.1
CCN(CC)S(=O)(=O)c1ccc(N2CCCC2)c(NC(=O)c2nn(C)c(=O)c3ccccc23)c1 | -23
Cc1onc(-c2c(F)cccc2Cl)c1C(=O)NC1=NCCS1 | 0.818

SMILES | hERG current change (%, negative = inhibition) at 10uM [%]
Cc1c(C#N)c2ncnc(-c3ccccc3)c2n1-c1ccccc1 | -11.3
CC(CN1CCCCC1)NC(=O)c1cc(-c2ccccn2)nc2ccc(Cl)cc12 (stereo not drawn) | -21.8
COc1ccc2nc(C)cc(N3CC(C)OC(C)C3)c2c1 (stereo not drawn) | -49.6
CC(=O)N(c1ccccc1Cl)S(=O)(=O)c1ccc(Cl)cc1 | 27.9
O=c1c2cc(Br)ccc2nc(-c2ccccc2)n1O | 31.8
O=C(O)CCCn1nc(-c2ccccc2)c2ccccc21 | 6.36
C/C(=N\NC(=S)Nc1ccccc1)C1Cc2ccccc2C(=O)O1 (stereo not drawn) | -24.3
Cn1cc(C(=O)c2ccc(Cl)cc2Cl)cc1C(=O)O | 20.5
O=C(O)c1cc2ccccc2cc1Nc1ccccc1 | 1.59
CC(C)CC(c1nnnn1CC1CCCO1)N1CCN(Cc2ccc3c(c2)OCO3)CC1.Cl (stereo not drawn) | -11
CSc1ccc(CNc2nnnn2C)cc1 | -11.3
CCOC(=O)C1C(c2ccc(O)c(O)c2)NC(=S)NC1(O)C(F)(F)F (stereo not drawn) | -4.33
Cc1ccccc1Cn1cc(NC(=O)c2cc(-c3ccco3)on2)cn1 | 15.4
CN(C1CCS(=O)(=O)C1)S(=O)(=O)c1cccs1 (stereo not drawn) | -51.6
CCOC(=O)Nc1cccc(NC(=O)c2cc(OC)cc(OC)c2)c1 | -53.7
CCN(CC)CCOC(=O)c1ccc(NC(=O)CCNC(=O)Cn2ccc3ccccc3c2=O)cc1 | 11.8
Fc1ccc(/C=N/Nc2ccccn2)cc1 | -2.11
Cc1nc([N+](=O)[O-])c(SCC(O)CCl)n1Cc1ccc(Cl)cc1 (stereo not drawn) | -59.9
C=C1C(=O)O[C@@H]2[C@H]1[C@@H](OC(=O)/C(C)=C/C)C/C(C)=C\C(=O)/C=C(\C)[C@@H]2O | 8.42
COC(=O)CSc1nnc(-c2ccc(S(=O)(=O)N3CCCC3)cc2)n1C | 13.3
CCOC(=O)C1CCN(S(=O)(=O)c2ccc(CNC(=O)c3ccccc3)s2)CC1 | -50.3

Source: publication PMC4336329 (PLoS ONE, 2015)
